# According to PubChem BioAssay AID485294 (National Center for Advancing Translational Sciences (NCATS), 2010):
# Hit rate of the full screen: of about 370,000 compounds, about 150 (0.041%) were called active. The inconclusive results got no clear call from the source; some entries with a clear call stand among them for comparison. Calls come from the whole dose curve; as a rule, active = well fitted inhibition curve with a large enough effect; inconclusive = small, poorly fitted or top-dose-only effect; inactive = flat fitted curve, though single readings scatter. No potency is given beside an inconclusive call; the fits are too rough.
# Molecular target: Beta-lactamase (Escherichia coli (strain K12)) (UniProt P00811)
# UniProt P00811, sequence (P00811 whole entry, looked up): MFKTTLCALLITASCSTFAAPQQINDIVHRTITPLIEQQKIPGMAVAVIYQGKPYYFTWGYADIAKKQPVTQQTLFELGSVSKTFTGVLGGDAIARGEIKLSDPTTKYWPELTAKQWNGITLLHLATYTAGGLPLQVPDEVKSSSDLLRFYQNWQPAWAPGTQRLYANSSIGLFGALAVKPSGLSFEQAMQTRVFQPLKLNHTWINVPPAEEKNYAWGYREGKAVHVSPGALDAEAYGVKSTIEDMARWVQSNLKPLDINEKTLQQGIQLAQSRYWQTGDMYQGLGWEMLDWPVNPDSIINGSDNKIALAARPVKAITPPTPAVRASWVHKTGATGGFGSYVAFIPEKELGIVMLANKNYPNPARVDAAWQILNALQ
# Assay: qHTS Inhibitors of AmpC Beta-Lactamase (assay with detergent); note: nearly all actives have a fitted effect of over 25% in size
# Details: AmpC hydrolysis of nitrocefin, absorbance 480 nm, 0.01% Triton; series mostly up to 114 µM
# Summary of the method: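 AmpC (5.3 nM in the dispensed reagent) in 20 mM phosphate pH 7.0 with 0.01% (detergent screen) or 0.0001% Triton X-100 was preincubated with compounds for 15 min at room temperature. Nitrocefin was then added from an 800 uM solution, and hydrolysis was followed at 480 nm.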
# Potency is the fitted concentration of half-maximal effect; tags give direction and shape of the fitted curve.
row,SMILES,Potency
1,CCc1ccc(OCC(=O)N2CCN=C2c2ccccc2)cc1,"inconclusive [inhibitor, full curve, poor fit]"
2,Cc1noc(C)c1CSCC(=O)Oc1ccc(N(C)S(=O)(=O)c2ccccc2)cc1,"inconclusive [inhibitor, single point]"
3,N#C/C(=C\Nc1ccccn1)S(=O)(=O)c1ccc(Cl)cc1,inactive
4,CCn1c(SCc2cccc(C(F)(F)F)c2)nnc1-c1ccco1,inactive
5,Cn1c(CCN2CCCCC2)nc2cc(NC(=O)COc3ccccc3)ccc21,"inconclusive [inhibitor, full curve]"
6,Cc1ccc(CN(C(=O)C(F)(F)F)C(C(=O)NC2CCCCC2)c2ccco2)cc1 (stereo not given),"inconclusive [inhibitor, full curve]"
7,CCc1ccc(NC(=O)CN2CCc3ccccc3C2)cc1,"inconclusive [inhibitor, single point]"
8,CCn1c(SCC(N)=O)nc2cc(S(=O)(=O)N3CCOCC3)ccc21,inactive
9,COc1ccc(C(CNC(=O)c2cccc(Br)c2)N2CCCC2)cc1 (stereo not given),inactive
10,COc1ccc(NC(=O)c2c(C)oc3ccc(O)c(CN4CCN(Cc5ccccc5)CC4)c23)cc1Cl,inactive
11,O=C(N/N=C/c1ccc(O)cc1)c1cc(-c2ccc3c(c2)OCO3)n[nH]1,inactive
12,CC(=O)Nc1ccc(C2=NN(c3ccccc3)C(c3ccccc3)C2)cc1 (stereo not given),inactive
13,COc1ccc(-c2c[n+]3c4n2CCCCC4=C(c2ccccc2)C3)cc1,inactive
14,O=C1CCN(Cc2ccc([N+](=O)[O-])cc2)CCN1[C@H](CO)c1ccccc1,"inconclusive [inhibitor, full curve, poor fit]"
15,Cc1ccccc1OCCCCn1c(CO)nc2ccccc21,inactive
16,Cc1cccc2nc3ccccc3nc12,"inconclusive [inhibitor, full curve, poor fit]"
17,Cc1oc2cc(OCc3cnn(-c4ccccc4)c3)ccc2c(=O)c1Oc1ccccc1F,"inconclusive [inhibitor, full curve, poor fit]"
18,O=C(Oc1ccc(-c2ccccc2)cc1)C1C2CCCCC21 (stereo not given),"inconclusive [inhibitor, partial curve]"
19,Cc1cccc(NC(=O)CN2CCN(CC(=O)NCC3(N4CCCCC4)CCCCC3)CC2)c1C,"inconclusive [inhibitor, single point]"
20,Nn1c(SCC(=O)Nc2ccc(Oc3ccccc3)cc2)nnc1C1CC1,"inconclusive [inhibitor, partial curve, poor fit]"
21,O=C(Nc1nc(-c2ccc(Cl)cc2Cl)cs1)c1ccc(OCC2CCCO2)cc1 (stereo not given),inactive
22,CN(CC(=O)Nc1ccc(Cl)c(C(F)(F)F)c1)C(=O)c1cccc(N2C(=O)CCC2=O)c1,"inconclusive [inhibitor, full curve, poor fit]"
23,CC1=NN(c2ccccc2C(=O)O)C(=O)C1N=Nc1ccccc1 (stereo not given),inactive
24,CCOC(=O)C1=C(CSc2nc3c(cc2C#N)CN(C)CC3)OC(N)=C(C#N)C1c1ccc(F)cc1 (stereo not given),"inconclusive [inhibitor, full curve, poor fit]"

row,SMILES,Potency
1,COc1ccc(NC(=O)CSCC(=O)OCc2cccc(OC)c2OC)cc1,inactive
2,Cc1cccc(OCCC(=O)N(C)CC(=O)Nc2cccc3ccccc23)c1,"inconclusive [inhibitor, partial curve]"
3,COc1ccc(/C=C2/C(=O)N(c3c(F)c(F)c(F)c(F)c3F)N=C2C)cc1,"inconclusive [inhibitor, full curve, poor fit]"
4,Cc1ccc(C(=O)NNC(=O)C(C)Oc2ccccc2F)cc1S(=O)(=O)N1CCOCC1 (stereo not given),"inconclusive [inhibitor, full curve, poor fit]"
5,O=C(O)c1cccc(COc2ccc3c(c2)CCC3)c1,inactive
6,Cc1ccc(Nc2nc3ccccc3c3nnc(C)n23)c(C)c1,"inconclusive [inhibitor, single point]"
7,Cc1ccccc1-c1nn2c(-c3ccccc3)nnc2s1,"inconclusive [inhibitor, partial curve]"
8,Cc1noc(C)c1CCC(=O)Nc1c(C(C)C)cccc1C(C)C,"inconclusive [inhibitor, full curve, poor fit]"
9,COc1ccc(CC2S/C(=C(\C#N)C(=O)NCc3ccco3)N(c3ccc(C)cc3)C2=O)cc1 (stereo not given),"inconclusive [inhibitor, full curve]"
10,CCN(CC)S(=O)(=O)c1cccc2nsnc12,"inconclusive [inhibitor, partial curve, poor fit]"
11,Cc1ccc(N2C(=O)C3C4C=CC(C4)C3C2=O)cc1C (stereo not given),inactive
12,COc1ccc2oc(C(=O)OCC(=O)N(C)Cc3ccccc3)c(C)c2c1,"inconclusive [inhibitor, full curve, poor fit]"
13,CC(C)(C)c1cc(OC(=O)Cc2ccccc2)ccc1O,"inconclusive [inhibitor, full curve, poor fit]"
14,O=C(NCCN1CCN(S(=O)(=O)c2ccc(F)cc2)CC1)C(=O)NCc1ccccc1,"inconclusive [inhibitor, full curve, poor fit]"
15,O=C(O)c1cccc(N2C(=O)C3CC=C(Cl)CC3C2=O)c1 (stereo not given),"inconclusive [inhibitor, full curve, poor fit]"
16,Cc1nn(-c2ccc(F)cc2)c(Cl)c1/C=C/C(=O)N1CCNC(=O)C1,inactive
17,NC(=O)C1CCCN(C(=O)NC2CCCCC2)C1 (stereo not given),"inconclusive [inhibitor, single point]"
18,CCCCn1c(=O)[nH]c(=O)c2c1nc(-c1ccccc1OC(F)F)n2C,inactive
19,COc1cccc(OCc2nc3ccccc3[nH]2)c1,inactive
20,COc1ccc(OCc2cc(C(=O)O)c(C)o2)cc1,inactive
21,COc1ccc(C(NC(=O)c2cccc(F)c2)c2ccccc2)cc1 (stereo not given),"inconclusive [inhibitor, full curve]"
22,Cc1ccc(S(=O)(=O)CCSc2ccc(C(F)(F)F)cn2)cc1,inactive
23,NS(=O)(=O)c1ccc(CCNc2ncnc3c2cnn3-c2cccc(Cl)c2)cc1,inactive
24,CCCCOc1ccc(NC2=NC3(CCCCC3)N=C(N)N2)cc1,inactive

row,SMILES,Potency
1,O=S(=O)(c1ccc(F)cc1)c1nc(-c2ccccc2)oc1N1CCOCC1,"inconclusive [inhibitor, full curve, poor fit]"
2,CC(C)CSc1nc2c(c(=O)[nH]c(=O)n2C)n1CC(O)COc1cccc2ccccc12 (stereo not given),"inconclusive [inhibitor, partial curve, poor fit]"
3,Cc1ccc(S(=O)(=O)N2CCN(C(=O)Cc3ccc(S(=O)(=O)N4CCOCC4)s3)CC2)cc1,inactive
4,O=C(Nc1ccccc1)c1ccc(OC(=O)c2cc3ccccc3o2)cc1,"inconclusive [inhibitor, full curve, poor fit]"
5,COCCCNC(=O)c1ccccc1Oc1ccccc1,"inconclusive [inhibitor, full curve, poor fit]"
6,Cc1ccc(N2CCN(/N=C/c3ccccc3)CC2)cc1,inactive
7,CCOC(=O)CNc1ncnc2nc[nH]c12,"inconclusive [inhibitor, full curve]"
8,COCCOC1CCN(C(=O)c2ccc(OC)c(OC3CCN(C(C)C)CC3)c2)CC1,"inconclusive [inhibitor, full curve, poor fit]"
9,Cc1cccc(NC(=O)C2C3CCCCC32)c1 (stereo not given),"inconclusive [inhibitor, partial curve, poor fit]"
10,COc1cc(C(=O)N2CCN(c3ccccc3Cl)CC2)ccc1OCC(=O)N1CCOCC1,"inconclusive [inhibitor, full curve, poor fit]"
11,COc1ccc([N+](=O)[O-])cc1/C=N/NC(=O)c1nonc1N,"inconclusive [inhibitor, full curve, poor fit]"
12,COc1ccc(Cl)cc1C(=O)NCC(C)C,"inconclusive [inhibitor, full curve, poor fit]"
13,CN1C(=O)c2cccc3c(S(=O)(=O)NCc4ccco4)ccc1c23,"inconclusive [inhibitor, full curve]"
14,C=CCc1cc(/C=N\NC(=O)CSc2nnc(CCCc3ccc(OC)c(C)c3)o2)cc(OC)c1O,"inconclusive [inhibitor, partial curve, poor fit]"
15,CC1CN(C(=O)c2ccc(Br)c(S(=O)(=O)N3CCOCC3)c2)CC(C)O1 (stereo not given),"inconclusive [inhibitor, full curve, poor fit]"
16,CCCn1c(CNc2ccc(Br)cc2)nc2ccccc21,inactive
17,COc1cccc(CNC(=O)CSc2nc3c(oc4ccccc43)c(=O)n2CC2CCCO2)c1 (stereo not given),"inconclusive [inhibitor, full curve, poor fit]"
18,CCOC(=O)CNC(=O)C1c2ccccc2Oc2ccccc21,inactive
19,O=C(COc1ccccc1)N=C1SC2CS(=O)(=O)CC2N1c1ccc(F)cc1 (stereo not given),"inconclusive [inhibitor, full curve, poor fit]"
20,Cc1ccc2c(c1)-c1c(cnc3cc(-c4ccc(F)cc4)nn13)CO2,inactive
21,O=c1c(CO)cc(CO)cc(CO)c1O,inactive
22,N#C/C(=C\c1c(N2CCC(C(N)=O)CC2)nc2ccccn2c1=O)S(=O)(=O)c1ccccc1,"inconclusive [inhibitor, full curve, poor fit]"
